This passage reports binding signal results from PMC7819943, “Rice protein-binding microarrays: a tool to detect cis-acting elements near promoter regions in rice”.

This is one part of the list.

The target of the test is T1, OsWOX13 (Oryza sativa, UniProt Q5QMM3 1-267).
T1 sequence: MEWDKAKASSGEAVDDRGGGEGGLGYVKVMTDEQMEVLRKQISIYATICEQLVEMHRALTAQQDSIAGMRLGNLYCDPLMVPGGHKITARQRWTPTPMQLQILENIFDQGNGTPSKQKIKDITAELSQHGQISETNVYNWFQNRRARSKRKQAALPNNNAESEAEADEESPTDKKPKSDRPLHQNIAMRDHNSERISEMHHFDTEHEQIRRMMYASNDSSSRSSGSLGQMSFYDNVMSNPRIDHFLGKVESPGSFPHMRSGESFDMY
The test is described as follows: protein-binding microarray (RPBM); PBS, 2% BSA, 51.3 ng/ul salmon testes DNA, 50 uM zinc acetate, 200 nM TF, 25 C, 1 h; high values mean tight binding. To be noted: protein: recombinant; tags: N-terminal polyhistidine and DsRed monomer fusion (pET32a); label: CyDye5-dUTP incorporated in the synthesized complementary strand; 3' TTTTT single-stranded linker to array surface; dsDNA, one strand shown. In short, it runs like this:
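Transcription factors were each fused at the N-terminus to a polyhistidine tag plus DsRed and expressed in E. coli BL21-CodonPlus before Ni–NTA purification. Binding to a double-stranded custom Agilent array was carried out with 200 nM protein at 25 °C for 1 h in PBS, 2% BSA, salmon testes DNA and 50 µM zinc acetate. The binding signal is per-feature fluorescence intensity, in arbitrary units, on an Axon 4000B scanner.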
“GATGAGCTATTAGCACATAATTAATTGAGTATTAACTATTCGGAGTCACCTAGTGCAG”: the binding signal was 8900 fluorescence intensity (a.u.). Turning to “ACACCCGTACTTTATTGATTTGTGGCTATCCAAATGTTGGCGGAGTCACCTAGTGCAG”, the binding signal is 5520 fluorescence intensity (a.u.).

With “TATATCTCAAATCATAATTATGGTTCAGTTTAACCCGATGCGGAGTCACCTAGTGCAG”, the binding signal is 9750 fluorescence intensity (a.u.). On to “TTTTCTTTGATTAATGTGAGAATTTCTAGCCTCTAGAGCGCGGAGTCACCTAGTGCAG”, for which the binding signal was 9310 fluorescence intensity (a.u.). As for “ATCCTAACTCAAGCAATGATTGATAGGACTAAGGAAACACCGGAGTCACCTAGTGCAG”, the figure is 29600 fluorescence intensity (a.u.); as for “CCAATCCTAATTGCTGTAATTACCCTCCGTGAATTATTGACGGAGTCACCTAGTGCAG”, 27500 fluorescence intensity (a.u.). Under “TTAGGATGATTGATAAGTTTTAGAGCCTTCCTAATAGCACCGGAGTCACCTAGTGCAG” stands 35900 fluorescence intensity (a.u.); under “TCTGTAAATTACATCCAGAAACCAAGTGAACTATAGGTGGCGGAGTCACCTAGTGCAG”, 8100 fluorescence intensity (a.u.); under “CTCAATGCGGTTTGATTGACGTGTAGAGCAGCCATTGGCCCGGAGTCACCTAGTGCAG”, 28500 fluorescence intensity (a.u.). As for “AAAGATTATTTCGATTTCTTTACTATATTTAGTACAATTGCGGAGTCACCTAGTGCAG”, the figure is 3200 fluorescence intensity (a.u.); as for “CTTCACTTAATTTGCTGTCTGTACAAACTACGAAGTAAACCGGAGTCACCTAGTGCAG”, 14200 fluorescence intensity (a.u.); as for “TTAATTGATTGATTGATTGATTAATCCGTTGTGAATCTAACGGAGTCACCTAGTGCAG”, 61500 fluorescence intensity (a.u.). On to “CGCAGACAGAAACAGTCGGTGATCGATCGGCTTGATTCCTCGGAGTCACCTAGTGCAG”, for which the binding signal was 7530 fluorescence intensity (a.u.). Under “CAGATTGGCCCACAAGAAACTTATCCCCAAGATATTTGTTCGGAGTCACCTAGTGCAG” stands 5050 fluorescence intensity (a.u.); under “AGAAGATTGAGCAAGTTCAACTGAAACCTAACTCGACAAGCGGAGTCACCTAGTGCAG”, 6020 fluorescence intensity (a.u.); under “CAAAATTGCAGATGGGTATCAGATTTATGCTAAGTTGGATCGGAGTCACCTAGTGCAG”, 5480 fluorescence intensity (a.u.). Consider “TATATATATATATATATATATATATAGAAATTAAGTCAAACGGAGTCACCTAGTGCAG”, for which the binding signal is 15900 fluorescence intensity (a.u.). As for “TGAAACTGTAAATTGGAGGTCTATATGTTTCATCCATTAACGGAGTCACCTAGTGCAG”, the figure is 9700 fluorescence intensity (a.u.); as for “TAAAACTTAATTAATTATACGTTAATATTACCTCGTTTTGCGGAGTCACCTAGTGCAG”, 53900 fluorescence intensity (a.u.).

Regarding “TGTAATAATCACTACATGTGTCATCGATCGATCAATTATGCGGAGTCACCTAGTGCAG”, the binding signal was 4810 fluorescence intensity (a.u.). On to “CTTGTAATTTATGGCTATATACACCTGTCAGCCGGGACTACGGAGTCACCTAGTGCAG”, for which the binding signal is 12500 fluorescence intensity (a.u.). Under “TAATTAATTTAGCTCACAACATATGGGCAGATCTGAGCTGCGGAGTCACCTAGTGCAG” stands 11700 fluorescence intensity (a.u.); under “TTGATTTTAATGGACAAAGGGAATATCTTAGTAAATCTAACGGAGTCACCTAGTGCAG”, 5560 fluorescence intensity (a.u.). Under “AATTTAAATTTTGGAGATAAATTATTGCTAATCTGTTGGTCGGAGTCACCTAGTGCAG” stands 18700 fluorescence intensity (a.u.). With “CATCTGCTGCACCCTAATTGGTATCTACTCCTCATCTAATCGGAGTCACCTAGTGCAG”, the binding signal is 5170 fluorescence intensity (a.u.). Consider “ATATCACCAATGATTTAAACCAAAACACATTTTGCAGGTCCGGAGTCACCTAGTGCAG”, for which the binding signal was 4370 fluorescence intensity (a.u.). Take “ACTTGATGATGTAATACATTCTAATACAGTAAATCTGGACCGGAGTCACCTAGTGCAG”: the binding signal is 7510 fluorescence intensity (a.u.). As for “ATGATTGTCTGATGTCAATTTATACGAAAGAATATGCTAGCGGAGTCACCTAGTGCAG”, the figure is 32200 fluorescence intensity (a.u.); as for “CATGATGGATATGAGTTGCTTCCTTGAACTCACTATATAACGGAGTCACCTAGTGCAG”, 13900 fluorescence intensity (a.u.); as for “GCTGATTTTGTTGGCCGTAGTACAGCCCATGTTCTGGAGACGGAGTCACCTAGTGCAG”, 9410 fluorescence intensity (a.u.). As to “TTGATTGTTGAGCATGAGAGACCCTCTATCTCGTCCCATACGGAGTCACCTAGTGCAG”, the binding signal was 28200 fluorescence intensity (a.u.). As for “TCTTGATTGCAGATATCTATACAATCCCATCAAAGATTATCGGAGTCACCTAGTGCAG”, the figure is 33100 fluorescence intensity (a.u.). As for “CACATGATTGATATCTCGTCACTGCTCGTAACTTCAGCCTCGGAGTCACCTAGTGCAG”, the binding signal was 62100 fluorescence intensity (a.u.). “TTCAATCAGGCTGTTGTCAGATTTGATCATTCGAACGACACGGAGTCACCTAGTGCAG”: the binding signal is 5960 fluorescence intensity (a.u.).

With “AGGAGACGAGAGAGAATTAATTATCTCGGAGATGAGCGGCCGGAGTCACCTAGTGCAG”, the binding signal was 6630 fluorescence intensity (a.u.). As for “AATAGGTTAATTAAGTGCTAATCAAAATAGTAAGTCTAATCGGAGTCACCTAGTGCAG”, the figure is 19200 fluorescence intensity (a.u.); as for “TAACATATGATTAATTAAGCATTAACAATTAAAATTTTAACGGAGTCACCTAGTGCAG”, 11100 fluorescence intensity (a.u.). Under “GATAGATAGTCATCAGATGGATAGATCAACAACAGAGAGGCGGAGTCACCTAGTGCAG” stands 3520 fluorescence intensity (a.u.); under “CATGATTTGACAATATGGTGATACAGTAAATATTTGCTAACGGAGTCACCTAGTGCAG”, 40600 fluorescence intensity (a.u.). As for “TCTAGGCAGATGCTTTCAATGATTGGCAATTGGCATTAAGCGGAGTCACCTAGTGCAG”, the figure is 20900 fluorescence intensity (a.u.); as for “AACAAATTGGGGCGAATTCTCGGTTAGCAGGTGGTGTATGCGGAGTCACCTAGTGCAG”, 15000 fluorescence intensity (a.u.); as for “TTTACATCAAATTATCTTGATATTTCTATAGTACTCTGAACGGAGTCACCTAGTGCAG”, 5030 fluorescence intensity (a.u.).
